# The whole screen tested about 120,000 compounds, of which about 5,300 (4.4%) were called active. The shares of active, inactive and inconclusive entries below differ from those in the screen. The call rests on the fitted dose curve; in most records, active means well fitted inhibition curve with a large enough effect; inconclusive means small, poorly fitted or top-dose-only effect; inactive means no such curve, though single readings can be large or run the other way. A potency beside an inconclusive call is a rough fit, not a confirmed value.
# Assay: qHTS Primary assay for Inhibitors of Plasmodium falciparum Dd2 growth in vitro; further: nearly all actives have a fitted effect of over 65% in size
# Details: P. falciparum Dd2 growth, SYBR Green, 72 h; series mostly up to 28.9 µM
# Summary of the method: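 Readout: SYBR Green fluorescence, 485 nm excitation, 535 nm emission, after ~16 h lysis at 37C. Before that, Dd2-infected red cells (2.5% hematocrit) grew 72 h with compound, 29 uM top final concentration.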
# Potency means the concentration at half of the fitted maximal effect; tags describe the fitted curve by direction and shape.
row,Compound,Potency
1,Cc1ccc(/C=C/c2nc3ccccc3n2S(=O)(=O)c2cccc(Cl)c2)cc1,"inconclusive: 10 µM [inhibitor, partial curve, poor fit]"
2,COc1ccc(-c2cc(NCCO)nc3[nH]ccc23)cc1C(F)(F)F,"inconclusive: 7.94 µM [inhibitor, partial curve]"
3,c1csc(CN2Cc3[nH]cnc3C[C@H]2c2nc(-c3ccc4ccccc4c3)no2)c1,"inconclusive: 31.6 µM [inhibitor, single point]"
4,CN(C)C(=O)c1cccnc1OC1CCN(C(=O)CC2CCCCC2)C1 (stereo not given),"inconclusive: 17.8 µM [inhibitor, single point]"
5,CCc1nc2c(c(-c3ccc(O)cc3)n1)CCN(Cc1ccsc1)CC2,"inconclusive: 3.98 µM [inhibitor, single point]"
6,COc1cccc(CCc2nc(-c3nnn4c3COC(c3ccc(C)cc3)C4)no2)c1 (stereo not given),"inconclusive: 20 µM [inhibitor, single point]"
7,COc1cccc(C(=O)Nc2cnc(-c3ccccc3)nc2)c1,"inconclusive: 7.94 µM [inhibitor, partial curve, poor fit]"
8,Cc1cc(=O)n(CC(=O)Nc2cccc(C#N)c2)c(N2CCc3ccccc3C2)n1,"inconclusive: 0.158 µM [inhibitor, single point]"
9,Cn1nccc1C(=O)N1CCC2(CC1)OCCN(Cc1ccccc1F)C2=O,inactive
10,Cc1cc(NC(=O)Cc2c[nH]c3ncc(-c4ccccc4C)cc23)n(C)n1,inactive
11,O=C(O)CCCC(=O)N1Cc2ccccc2CC2(CCCN(Cc3ccncc3)C2)C1 (stereo not given),"inconclusive: 12.6 µM [inhibitor, single point]"
12,COc1ccc(CCNC(=O)CCCn2c(=O)c3ccccc3n(CC(=O)Nc3ccc(C)cc3Cl)c2=O)cc1OC,"inconclusive: 6.31 µM [inhibitor, partial curve]"
13,CCOc1ccc(C(=O)N2CCC3(CC2)CN(c2ncccn2)CC3CO)cc1 (stereo not given),inactive
14,CC(C)(C)OC(=O)N1CCCC(n2c(=O)[nH]c3cccnc32)C1 (stereo not given),"inconclusive: 14.1 µM [inhibitor, partial curve]"
15,Cc1nn2c(=O)cc(COC(=O)C(c3ccccc3)c3ccccc3)nc2s1,"inconclusive: 11.2 µM [inhibitor, partial curve, poor fit]"
16,COc1ccc(CNC(=O)c2cc3c(=O)[nH]c4ccccc4c3n2C)c(OC)c1,"inconclusive: 10 µM [inhibitor, partial curve]"
17,O=C(NC1CCN(Cc2ccccc2)CC1)c1cc2n(n1)CC(c1ccc3c(c1)OCO3)OC2 (stereo not given),"inconclusive: 7.94 µM [inhibitor, partial curve, poor fit]"
18,CCc1nc2c(c(-c3ccc(OC)cc3)n1)CCN([S+](=O)([O-])c1c(C)noc1C)CC2,inactive
19,O=C1CC(c2ccccc2)N(C(=O)CNC(=O)CN2CCCCCC2)CCCCCN1 (stereo not given),"inconclusive: 5.62 µM [inhibitor, partial curve]"
20,O=C(Cc1ccc2c(c1)OCO2)N1CCN(Cc2ccccc2)CC(O)C1 (stereo not given),"inconclusive: 7.94 µM [inhibitor, single point]"

row,Compound,Potency
1,O=C(NCC(c1cccnc1)N1CCc2ccccc2C1)C(=O)Nc1ccc(F)cc1F (stereo not given),"inconclusive: 17.8 µM [inhibitor, single point]"
2,COc1ccccc1CCC(=O)NC1CCN(C(=O)c2cc3c(=O)[nH]c(C)cn3n2)CC1,"inconclusive: 3.98 µM [inhibitor, full curve]"
3,COc1cc(C(=O)N2CCC(c3nc4ccccc4s3)CC2)cc(OC)c1OC,inactive
4,COc1cccc(-c2ccnc3nc(Cc4cc(F)cc(F)c4)nn23)c1,active: 10 µM
5,COc1ccccc1CN1CCC(O)(c2csc(CN3CCN(c4ccccn4)CC3)n2)CC1,"inconclusive: 7.94 µM [inhibitor, single point]"
6,COc1ccc(C2=C(C)C(=NCc3ccc(OC(C)C)cc3)NS2(=O)=O)cc1,"inconclusive: 17.8 µM [inhibitor, single point]"
7,CN1CC[C@H]2CN(c3cc(NCCO)ncn3)C[C@@]2(C(=O)O)C1,inactive
8,COc1cccc(NC(=O)O[C@@H]2CO[C@H]3[C@@H]2OC[C@@H]3Nc2nccc(-c3ccc4c(c3)OCO4)n2)c1,inactive
9,CN1CCOC(CNc2ncc(C(C)(C)C(=O)O)c(N3CCOCC3)n2)C1 (stereo not given),inactive
10,CCc1ccccc1NC(=O)N(C)CC1CCOC1 (stereo not given),inactive
11,CC1=C[C@@H](CNS(C)(=O)=O)[C@H](C(C)C)C[C@H]1Cc1nc2ccc(F)cc2[nH]1,"inconclusive: 31.6 µM [inhibitor, single point]"
12,O=C(Nc1nccs1)C1CC(=O)N(c2n[nH]c3cc(Br)ccc23)C1 (stereo not given),inactive
13,COc1ccc(CNC(=O)[C@@H]2Cc3c[nH]c4cccc(c34)[C@H](CC(C)C)N2)cc1,"inconclusive: 31.6 µM [inhibitor, single point]"
14,COc1ccc(OC)c(CN2C[C@H]3[C@H](C2)[S+](=O)([O-])C(C)(C)C(=O)N3CCOc2ccccc2)c1,"inconclusive: 20 µM [inhibitor, partial curve, poor fit]"
15,O=C(COc1ccccc1F)Nc1ccc2nc(SCC(=O)N3CCCC3)sc2c1,"inconclusive: 17.8 µM [inhibitor, single point]"
16,O=C(COc1ccc(F)cc1F)N1CCCC(Cc2nc3ccccc3[nH]2)C1 (stereo not given),inactive
17,Cc1nn(CCCC(=O)Nc2cccc(C(F)(F)F)c2)c(=O)c2nn(-c3ccccc3)c(C)c12,"inconclusive: 5.01 µM [inhibitor, partial curve]"
18,Cc1cc2nc3n(c(=O)c2n1CC(=O)Nc1ccc(Br)cc1)CCCCC3,"inconclusive: 3.98 µM [inhibitor, single point]"
19,Cc1nn2c(c1-c1ccccc1N1CCCC1)N(C(=O)COc1ccccc1)CCC2,"inconclusive: 5.62 µM [inhibitor, single point]"
20,Cc1ccc2nc(CO[C@H]3CN(Cc4ccccc4)C[C@H]3F)[nH]c2c1,"inconclusive: 1.12 µM [inhibitor, partial curve]"
